Source: the supplement of paper PMC10126150
Sequences with one replicate were seen in a single cluster, so their values are uncertain.

Tested on: ATP
Test: switch fluorescence ratio, 500 uM ATP over buffer (Cy3 cluster intensity, sum of 5 cycles each) (fold (ratio)); higher = stronger signal-on switching upon ATP binding; sequences stand for … in TCGTCGGCAGCGTCAGATGTGTATAAGAGACAGTTTTTTTTTTTTTTTTTTTTTTTTT…TC
Details: aptamer strand: ATP DNA aptamer (quencher-CACCTGGGGGAGTATTGCGGAGGAAGG + anchor), 100 nM annealed; ATP concentration: 500 uM; one replicate
In short: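 The quencher-labelled ATP aptamer, at 100 nM, was annealed to Cy3-labelled switching-strand clusters on a modified Illumina MiSeq flow-cell. The clusters were imaged in selection buffer, then after 15 min with 500 uM ATP at 22 °C, and this buffer/ATP cycle ran five times with NaOH stripping and re-annealing between runs. Per-cluster fluorescence ratios, summed target-cycle over summed buffer-cycle Cy3 intensity, were averaged per switch-domain sequence. Clusters outside 100-1000 RFU were excluded.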
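Further: ATP exposure 15 min at 22 °C before imaging.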

| Sequence | switch fluorescence ratio |
| --- | --- |
| TTTCGCG | 0.974 |
| GCTATACATT | 1.11 |
| GTCCTCCAGC | 3.63 |
| TTCGAAGATG | 1.05 |
| AGTGGCTTAA | 0.96 |
| TGCTTAGCTG | 0.974 |
| CTTAGTGGG | 0.97 |
| TGTTCTGCC | 1.07 |
| TAACTCAATG | 1.01 |
| TCGCTGTTGC | 1.12 |
| GTCCTGTGGC | 0.972 |
| CGACGTGCAA | 3.19 |
| CCGGTTCCGC | 1.3 |
| TATTCTGTTG | 0.964 |
| TGTGTGCTCT | 0.985 |
| GTGCTAGTGA | 1 |
| GCTACCAACG | 1.21 |
| ATCGCGGTTC | 1.26 |
| AGGAGTTCGC | 0.976 |
| CTGTGATAAA | 0.984 |
| GAGGAAATT | 2.61 |
| CTCGCAGACA | 1.35 |
| GGCCGATTGC | 1.06 |
| TAAACTACT | 1.04 |
| CACTTAAAA | 1.03 |
| TTAGCATCA | 1 |

| Sequence | switch fluorescence ratio |
| --- | --- |
| TATCGAGAGC | 0.967 |
| GAGTTGATAC | 1.05 |
| ATGAAGACTC | 1.02 |
| CGGAGAGTTC | 1.06 |
| TCTTGGGGCG | 0.969 |
| GATTCGCTTC | 1.01 |
| GAGGGGCTTG | 1.02 |
| GCAGGGGCCT | 0.997 |
| AATGCTTGGA | 1.02 |
| TTGCTGTTAT | 1 |
| AGGGTGAACT | 1.02 |
| TGAAGCACAC | 4.14 |
| GGAAAGGTAA | 1.07 |
| CAAATCGGTC | 0.921 |
| TGGACGCCAT | 1.03 |
| AATAAACCTT | 2.62 |
| CACAAAACAC | 1.08 |
| GCGTAGAGAT | 0.988 |
| ACATTCTCAG | 1 |
| AAATATAAG | 0.997 |
| AGAGAGTCGT | 1.01 |
| AGATGCCCCT | 1.1 |
| TAGGGATCAT | 0.978 |
| GGTCAAGAGT | 0.942 |
| GACTGCCCCT | 1.09 |
| TTTAGTAAGC | 0.985 |

| Sequence | switch fluorescence ratio |
| --- | --- |
| GTCTGTAAGC | 1.04 |
| CCACATATAA | 1.25 |
| GTAAATACGT | 1.03 |
| TAATGCTCTA | 0.983 |
| TTTAGTGAAA | 1.04 |
| ACAATGGCTC | 1.05 |
| GTTGTTCCGT | 0.955 |
| CCACAGATTC | 1.11 |
| TATCGTCCCC | 1.02 |
| CAGTAAGCTT | 1.01 |
| TCATGGACGC | 1.02 |
| ACGAAACTCC | 1.11 |
| CGCAGCGCGT | 0.999 |
| AGTGGAGGCG | 1.09 |
| TATGGTCGAA | 0.974 |
| GTGATTAAAC | 0.985 |
| CGGCCTATTG | 1.02 |
| CAAAATTTG | 0.974 |
| AGACATGCCG | 0.961 |
| CCGTTATGAT | 1.07 |
| GTTACTGAGC | 1.02 |
| TTTACGTCCG | 1.07 |
| AGTTCGAGCC | 1.01 |
| TTTTGACCAT | 1.02 |
| AGAATCTTAG | 0.972 |
| GTTGCGCGGC | 1 |

| Sequence | switch fluorescence ratio |
| --- | --- |
| ACCAACAAAC | 1.2 |
| CTTGGTACGC | 1.12 |
| GTTACTAAAA | 0.987 |
| GGGTCCCTCC | 0.991 |
| ATTCCAGTAT | 1.03 |
| TTTCTTCTTA | 0.942 |
| GGCAACCTCC | 2.17 |
| CCTGGAAGGC | 1.12 |
| GGTCATTTCT | 0.961 |
| CTGGGTCTAA | 0.973 |
| CGTCGGGCAG | 1.02 |
| GGGTTTCTAC | 0.969 |
| AGGCTCTTAC | 1.06 |
| GTCTGTGATT | 0.993 |
| AAGAAGTTAA | 1.03 |
| GCGAGGATTT | 1 |
| CCCCTATAAT | 1.04 |
| TTTCCCCTCG | 1.03 |
| CAAAACGC | 1 |
| AGGTAGACTC | 1.01 |
| GGTAGTCACG | 0.972 |
| CTGTTACAT | 1.06 |
| ACATTAGCA | 1.04 |
| ATTTGGCGGG | 0.979 |
| ACGGGGACGA | 1.02 |
| GACTAATTTG | 1.02 |

| Sequence | switch fluorescence ratio |
| --- | --- |
| TTATGGCAGG | 1.01 |
| TTCAGTGGAT | 1.03 |
| TTTCTTAGG | 1.03 |
| GAGTGATCCG | 0.959 |
| ACGGGGTCTC | 0.983 |
| GGTGGGCGTC | 0.993 |
| TTGAATCATC | 1.02 |
| TGTTCCATAT | 1 |
| CGACTTCGGG | 0.99 |
| TCAACTCTGG | 1.04 |
| GATATCTG | 0.897 |
| TGATCACATG | 0.989 |
| TATGGTCCGA | 0.983 |
| AGGGGTTTAG | 0.974 |
| AAGGATTTTC | 0.994 |
| GTTTAACAAC | 0.993 |
| GGCCCTGTGT | 1.08 |
| GGTTTCCTCT | 1.04 |
| ACTGCGTATT | 1.01 |
| CATGAGTTAA | 1.02 |
| AGGGCGCCT | 0.985 |
| CTTCTTAGCT | 0.976 |
| CGGGGATTGT | 0.959 |
| TGGAAAATTG | 0.983 |
| GTAATTTGTC | 1.01 |
| ATGAGGGGAT | 0.99 |

| Sequence | switch fluorescence ratio |
| --- | --- |
| CATACGGATG | 0.987 |
| GATCGTCCGA | 1.04 |
| TAAGGTTCTA | 1 |
| ATAAGCACCC | 1.5 |
| CTGGACCT | 1.33 |
| TAACCAACA | 1.09 |
| CGAAAGGTTC | 1.04 |
| GAGTCAGGCT | 0.949 |
| AAAAGCGCGA | 1.08 |
| CAGGCTTCGT | 1.02 |
| ATCTCTAAG | 1 |
| TCATCCAGAA | 1.08 |
| CGATGGAGT | 1.01 |
| CGGACCCGTC | 0.957 |
| GGCATGGTCG | 1.01 |
| TAGAAGTGCC | 0.999 |
| GAATAAGCC | 1.06 |
| TGTATTCAGC | 0.913 |
| CGGAGTTACG | 1.03 |
| ATCCGTCCGC | 1.9 |
| CTGGCGAGCC | 1.03 |
| TTCACATTTG | 1.01 |
| TAACTGTGAA | 0.979 |
| CGTAGCAAAA | 1.93 |
| TAATTTGACT | 1.01 |
| TCATGGCAGA | 1.01 |

| Sequence | switch fluorescence ratio |
| --- | --- |
| CATGTTTAAT | 1.01 |
| GCTAGGATTG | 0.981 |
| TTATTCAATG | 1 |
| AAGCAATGTG | 1.21 |
| CAATAAGTAT | 1.02 |
| GGATATGTAC | 1.1 |
| TAGCTATAAT | 1.02 |
| GAACCCCCGC | 1.67 |
| CCTTATTTAT | 1.03 |
| GATGGAGTAG | 1.04 |
| TGCATAGCGG | 1.04 |
| GTGTATTCGG | 0.962 |
| GGCGGGGATT | 1.04 |
| GATGCTGG | 1 |
| TGATGAGGCG | 1.03 |
| CAGCTTCGTA | 0.967 |
| CAAAGCTTAC | 4.21 |
| AAATCGGTCG | 0.948 |
| AGTTTGTCGC | 0.945 |
| AGATCACCTG | 1.14 |
| AGTGCATCGG | 1.03 |
| AATCCGGAGA | 1.05 |
| TGATGAGAAG | 1.04 |
| CATGAGACGA | 0.965 |
| ACTCAAAGG | 1.81 |
| CGAACTGCCA | 1.04 |

| Sequence | switch fluorescence ratio |
| --- | --- |
| AGAGACATCC | 1.02 |
| TGGGTGTCGA | 1.03 |
| TTAAGGACAG | 1.02 |
| ACCATCAGAG | 1 |
| ACGATGGAAA | 0.985 |
| AAGGGCTCTT | 0.931 |
| CTATCCCAAG | 1.08 |
| CTCCCAGCAG | 2.77 |
| CTTGGCCAGG | 1.04 |
| TAGCCAGCTT | 1.01 |
| CTACATAGGT | 1.07 |
| GCTAGTGATC | 1.03 |
| GGCCCCCGCT | 1.12 |
| CGTGT | 0.983 |
| TGAGGAGTCT | 1.05 |
| AACTGGACGT | 1.02 |
| ACCCTCCAAA | 1.48 |
| AAGTGAGTGG | 0.971 |
| GCCACACTTC | 1.02 |
